According to patent US7811992B2, “Anti-infarction molecules” (Stasys Technologies, Inc., priority 2002, dated 2010):
Several values for one entry are separate records, joined by “and”; a condition that tells them apart may be missing. Identical values can stand only once.

System: cerebral infarction in mouse MCAO model
Experiment: Mouse MCAO model, FPA variants (Example 5)
Assay type: in vivo, C57BL/6 mouse
Settings: for % Ischemic Injury: dose equivalent to 10 mg/kg of parent peptide, 1 hour after MCAO; for ischemia injury %, Mean: mean over the animals of one experiment, VP001 10 mg/kg, other variants equivalent dose according to MW

| Substance | % Ischemic Injury [%] | ischemia injury %, Mean |
| --- | --- | --- |
| VP031 (GEALAEGGGVR) | 18.7 | 18.7% |
| VP026 (AEGGG) | 36.8 | 36.8% |
| VP020 (LAEGGGVR) | 28.4 | 28.4% |
| VP015 (GEFLAEG) | 17.5 | 17.6% |
| VP032 (GEFAAEGGGVR) | 22.4 | 17.5% and 27.2% |
| VP014 (GEFLAEGG) | 22.9 | 20.0% and 25.9% |
| VP018 (EFLAEGGGVR) | 26.2 | 26.2% |
| VP028 (GGGVR) | 13.9 | 13.9% |
| VP038 (GEFLAEGGGAR) | 32.3 | 32.3% |
| VP035 (GEFLAEAGGVR) | 19.0 | 19.0% |
| VP024 (FLAEG) | 22.2 | 22.2% |
| VP019 (FLAEGGGVR) | 14.1 | 14.1% |
| VP033 (GEFLGEGGGVR) | 15.4 | 15.4% |
| VP039 (ADTDKGEFLAEGGGVR) | 24.8 | 22.7% and 26.8% |
| VP022 (EGGGVR) | 19.9 | 19.9% |
| VP012 (GEFLAEGGGV) | 27.8 | 24.5% and 31.0% |
| VP013 (GEFLAEGGG) | 27.2 | 27.2% |
| VP030 (GAFLAEGGGVR) | 18.3 | 18.3% |
| VP029 (AEFLAEGGGVR) | 5.6 | 5.6% |
| VP034 (GEFLAAGGGVR) | 21.8 | 21.8% |
| VP023 (EFLAE) | 16.4 | 16.4% |
| VP025 (LAEGG) | 25.8 | 25.8% |
| VP016 (GEFLAE) | 28.7 | 28.7% |
| VP017 (GEFLA) | 27.3 | 27.3% |
| VP027 (EGGGV) | 31.1 | 31.1% |
| VP036 (GEFLAEGAGVR) | 28.9 | 28.9% |
| VP037 (GEFLAEGGAVR) | 16.9 | 16.9% |
| VP021 (AEGGGVR) | 15.6 | 15.6% |
